# Assay results published in PubChem BioAssay AID686979 (National Center for Advancing Translational Sciences (NCATS), 2013).
# Where “and” joins values, the source holds several entries; their conditions need not be identical. Identical values can stand only once. In all, about 420,000 compounds went through this assay and about 50,000 (12%) were called active. Inconclusive means that the source gave no clear call. Such entries were picked first, then a sample of the others. Calls follow the shape of the dose curve; as a rule, active = well fitted inhibition curve with a large enough effect; inconclusive = small, poorly fitted or top-dose-only effect; inactive = flat fitted curve, though single readings scatter. Potencies of inconclusive entries are left out as doubtful fits.
# Assay: qHTS for Inhibitors of human tyrosyl-DNA phosphodiesterase 1 (TDP1): qHTS in cells in presence of CPT; also: nearly all actives have a fitted effect of over 55% in size
# Conditions: chicken DT40 Tdp1-/-;hTDP1 cells + 20 nM CPT, ATP luminescence, 48 h
# In short: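 Chicken DT40 Tdp1-/- cells complemented with human TDP1, 400 cells/well, exposed to compounds plus 20 nM camptothecin for at least 48 h at 37 C; viability read as ATP content by CellTiter-Glo luminescence.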
# [1] = activity change, negative = growth inhibition: at 46.2 µM (top of the series) unless noted
# % is scaled to controls: 0 for no effect and ±100 for the full control effect; potency is read from the fitted curve at half-maximal effect; tags tell the direction and shape of the fitted curve.
smiles,measurement,setting,value
O=[N+]([O-])c1ccc(C(=Nc2ccccc2)N2CC2)cc1,Potency,[1],active: 8.2 µM
COc1cc(C2c3cc4c(c(O)c3CC3COC(=O)C32)OCO4)cc(OC)c1OC (stereo unspecified),Potency,[1],active: 411 nM and active: 112 nM and active: 92 nM
C[C@H]1O[C@@H](O[C@H]2[C@@H](O)C[C@H](O[C@H]3[C@@H](O)C[C@H](O[C@H]4CC[C@]5(C)C6CC[C@]7(C)[C@@H](C8=CC(=O)OC8)CC[C@]7(O)C6CC[C@@H]5C4)O[C@@H]3C)O[C@@H]2C)C[C@H](O)[C@@H]1O (stereo partly specified),Potency,[1],active: 0.335 µM
Cc1ccccc1-n1c(O)c(C(c2ccncc2)c2c(O)n(-c3ccccc3C)c(=O)[nH]c2=O)c(=O)[nH]c1=O,Potency,[1],inactive
O=S(=O)(c1cccc(C(F)(F)F)c1)N1Cc2ccccc2-n2nncc2C1,Potency,[1],active: 23.1 µM
CC(C)NC(=O)N1Cc2cc(C(=O)NC3CCCCC3)nc(-c3cccc(-c4cccnc4)c3)c2[C@@H]1CCO,Potency,[1],active: 11.6 µM
Cc1cccc(-n2c(/C=C/c3cccc4ccccc34)nc3ccccc3c2=O)c1,Potency,[1],active: 9.2 µM
O=c1c2ccccc2nc(-c2ccccc2)n1-c1cccc(O)c1,Potency,[1],"inconclusive [inhibitor, partial curve]"
O=c1c2ccccc2nc(/C=C\c2cccc(Br)c2)n1-c1ccc(O)cc1,Potency,[1],"inconclusive [inhibitor, single point]"
C[C@H]1CN([C@@H](C)CO)C(=O)CCCn2nncc2CO[C@H]1CN(C)C(=O)Oc1ccc2ccccc2c1,Potency,[1],active: 16.4 µM
c1ccc(CN2CC[C@@]3(CCCNC3)C2)cc1,Potency,[1],"inconclusive [inhibitor, single point]"
COc1ccc(C)cc1N(CC(=O)N1CCC(C)CC1)S(=O)(=O)c1ccc(C)cc1,Potency,[1],active: 18.4 µM
CCOC(=O)CC(SP1(=S)OCC2(CCCCC2)CO1)C(=O)OCC (stereo unspecified),Potency,[1],inactive
COc1ccc2c(c1)C(NC(C)=O)CCc1cc(OC)c(OC)c(OC)c1-2 (stereo unspecified),Potency,[1],active: 0.0082 µM
Cc1ccc(-n2c(/C=C/c3cccc(C(F)(F)F)c3)nc3ccccc3c2=O)cc1,Potency,[1],"inconclusive [inhibitor, partial curve]"
CCC(CC)NC1CCCCC1OC (stereo unspecified),Potency,[1],inactive
Cn1c(O)c(C(=NCCc2c[nH]c3ccccc23)c2ccccc2)c(=O)n(C)c1=O,Potency,[1],inactive
C=C(C)[C@@H]1CC[C@]2(C(=O)O)CC[C@]3(C)C(CCC4[C@@]5(C)CC[C@H](O)C(C)(C)C5CC[C@]43C)C12 (stereo partly specified),Potency,[1],active: 6.51 µM
CC(C)c1ccc(NC(=O)C2CCC(CNS(=O)(=O)c3ccc4c(c3)CCCC(=O)N4)CC2)cc1 (stereo unspecified),Potency,[1],active: 13 µM
COc1ccc(-n2c(=O)[nH]c3ccccc3c2=O)cc1,Potency,[1],inactive
Cc1ccccc1NP(=O)(Oc1ccccc1F)Oc1ccccc1F,Potency,[1],inactive
N[C@@H](Cc1c[nH]c2ccccc12)c1nnc(SCc2ccccc2F)o1,Potency,[1],inactive
CC(=O)O[C@@]12CO[C@@H]1C[C@H](O)[C@@]1(C)C(=O)[C@H](O)C3=C(C)[C@@H](OC(=O)[C@H](O)[C@@H](NC(=O)c4ccccc4)c4ccccc4)C[C@@](O)([C@@H](OC(=O)c4ccccc4)C12)C3(C)C (stereo partly specified),Potency,[1],active: 0.0326 µM
COc1ccc(NP(=O)(Oc2ccccc2OC)Oc2ccccc2OC)cc1,Potency,[1],"inconclusive [inhibitor, single point]"
COc1cccc(Oc2coc3cc(OC(=O)N(C)C)ccc3c2=O)c1,Potency,[1],"inconclusive [inhibitor, single point]"
CCC1(CCC(C)C)C(=O)NC(=O)NC1=O,Potency,[1],"inconclusive [inhibitor, single point]"
CCCCOCCCn1c(N)c(C(=O)OC(C)COC)c2nc3ccccc3nc21 (stereo unspecified),Potency,[1],"inconclusive [inhibitor, single point]"
O=C(O)/C=C/C(=O)O,Potency,[1],inactive
CC1=NN(c2ccccc2)C(=O)C1/C=C1\C(=O)NC(=O)N(c2ccc(C)c(C)c2)C1=O (stereo unspecified),Potency,[1],"inconclusive [inhibitor, single point]"
CCOc1ccc(CN2C(=O)c3ccccc3Sc3ccc(C(=O)N4CCC5(CC4)OCCO5)cc32)cc1,Potency,[1],active: 18.4 µM
CCN(CC)C(=O)c1ccc(NC(=O)c2cc(S(=O)(=O)N3CCCCCC3)ccc2OC)cc1,Potency,[1],inactive
CCN(C(=O)COC(=O)c1cc(C)n(C2CC2)c1C)c1ccccc1,Potency,[1],"inconclusive [inhibitor, single point]"
NC(Cc1ccc(O)cc1)C(=O)NN=Cc1ccc(N(CCCl)CCCl)cc1 (stereo unspecified),Potency,[1],active: 8.2 µM
Cc1c(C(c2ccc(O)cc2)c2c(O)c3ccccc3oc2=O)c(=O)n(-c2ccccc2)n1C (stereo unspecified),"activity change, negative = growth inhibition",[1],inconclusive: 4.42% [inhibitor]
same,"activity change, negative = growth inhibition",at 46.2 µM (top of the series),inactive: -3.2%
C[N+]1(C)CCc2cc3c(cc2[C@H]1[C@@H]1OC(=O)c2c1ccc1c2OCO1)OCO3,Potency,[1],"inconclusive [inhibitor, single point]"
Cc1cc(O)c(CN2CCN(c3ccccc3)CC2)cc1C,Potency,[1],"inconclusive [inhibitor, single point]"
Cc1nnc2n1-c1ccc(Cl)cc1C(c1ccccc1)=NC2,Potency,[1],"inconclusive [inhibitor, single point]"
CCCCCn1c(=O)c(C(=O)NCc2ccncc2)c(O)c2ccccc21,Potency,[1],"inconclusive [inhibitor, single point]"
O=C(CCS(=O)(=O)c1ccc(Cl)cc1)Nc1cccc(S(=O)(=O)N2CCCCCC2)c1,Potency,[1],"inconclusive [inhibitor, single point]"
O=C(Nc1ccc(N2CCOCC2)cc1)C1CCN(S(=O)(=O)c2cccc(C(F)(F)F)c2)CC1,Potency,[1],"inconclusive [inhibitor, single point]"
CCCCn1nnnc1C(c1ccnc2ccccc12)N1CCC2(CC1)C(=O)NCN2c1ccccc1 (stereo unspecified),Potency,[1],active: 16.4 µM
CCC/C=C/C=C/C(=O)O[C@H]1/C(=C/C(=O)OC)C[C@H]2C[C@H]([C@@H](C)O)OC(=O)C[C@H](O)C[C@@H]3C[C@H](OC(C)=O)C(C)(C)[C@](O)(C[C@@H]4C/C(=C/C(=O)OC)C[C@H](/C=C/C(C)(C)[C@]1(O)O2)O4)O3,Potency,[1],"inconclusive [inhibitor, full curve]"
O=C(CN1CCCC1)c1ccccc1,Potency,[1],"inconclusive [inhibitor, single point]"
COc1ccc(CCNCc2ccccc2F)cc1OC,Potency,[1],inactive
O=C(O)[C@@H]1CSC(c2cccnc2)N1 (stereo partly specified),"activity change, negative = growth inhibition",[1],inactive: 7.21% [at 9.04 µM]
CCCCOC1NC(=O)NC(=O)C1(F)C(=O)OCC (stereo unspecified),Potency,[1],"inconclusive [inhibitor, partial curve]"
CCn1cc(C(=O)NCc2ccccc2)c2ccccc21,Potency,[1],"inconclusive [inhibitor, partial curve]"
O=Nc1c(-c2ccccc2)n(O)[n+]([O-])c1-c1ccccc1,Potency,[1],"inconclusive [inhibitor, single point]"
COc1ccc(S(=O)(=O)NC(CC(=O)N2CCC3(CC2)OCCO3)C(C)C)cc1 (stereo unspecified),Potency,[1],inactive
CCN(CC)c1ccc(CC2C(=O)N(C)C(=O)N(C)C2=O)cc1,Potency,[1],"inconclusive [inhibitor, partial curve]"
CC(C)(C)c1ccc(O)cc1,Potency,[1],inactive
O=C(OCc1ccccc1)N1CCC2CC1c1cc(N3Cc4ccccc4-n4nncc4C3)ccc12 (stereo unspecified),Potency,[1],active: 7.31 µM
Cc1cccc(N2CCN(Cc3ccc4c(c3)OCO4)CC2)c1C,Potency,[1],"inconclusive [inhibitor, single point]"
O=C(c1ccc2c(c1)N(Cc1c(F)cccc1Cl)C(=O)c1ccccc1S2)N1CCC2(CC1)OCCO2,Potency,[1],"inconclusive [inhibitor, single point]"
C[C@H]1O[C@@H](O[C@H]2[C@@H](O)C[C@H](O[C@H]3[C@@H](O)C[C@H](O[C@H]4CC[C@@]5(C)[C@H](CC[C@@H]6[C@@H]5CC[C@]5(C)[C@@H](C7=CC(=O)OC7)CC[C@]65O)C4)O[C@@H]3C)O[C@@H]2C)C[C@H](O)[C@@H]1O,Potency,[1],active: 291 nM and active: 299 nM
Cc1ccc(OP(=O)(NC(C)c2ccccc2)Oc2ccc(C)cc2)cc1 (stereo unspecified),Potency,[1],"inconclusive [inhibitor, single point]"
Cc1cc2nc3c(=O)[nH]c(=O)nc-3n(C[C@H](O)[C@H](O)[C@H](O)COP(=O)(O)OP(=O)(O)OC[C@H]3O[C@@H](n4cnc5c(N)ncnc54)[C@H](O)[C@@H]3O)c2cc1C,Potency,[1],"inconclusive [inhibitor, single point]"
Cc1ccc(C)c(CN2C(=O)c3ccccc3Sc3ccc(C(=O)N4CCC5(CC4)OCCO5)cc32)c1,Potency,[1],"inconclusive [inhibitor, single point]"
CCCCN1CCC(O)(c2ccccc2)C(C(=O)c2ccccc2)C1 (stereo unspecified),Potency,[1],active: 2.91 µM
COc1ccc(C(=O)Cn2c(NCCCl)nc3ccccc32)cc1,Potency,[1],active: 20.6 µM
c1ccc(SSc2ccccc2)cc1,Potency,[1],active: 11.6 µM
Clc1ccc2nc3c(c(-c4ccccc4)c2c1)CNCC3,Potency,[1],"inconclusive [inhibitor, single point]"
CC(c1ccccc1)(c1ccccc1)c1ccncc1,Potency,[1],"inconclusive [inhibitor, single point]"
Clc1ccc(-c2nc3ccc(Cl)cn3c2CN2CCCCC2)cc1,Potency,[1],"inconclusive [inhibitor, single point]"
COC(=O)C1=C(c2ccc3ccccc3c2)C[C@@H]2CC[C@H]1N2C(=O)NC(C)C,Potency,[1],"inconclusive [inhibitor, single point]"
